Measurements: PubChem BioAssay AID504845 (National Center for Advancing Translational Sciences (NCATS), 2011)
Several values for one entry are separate records, joined by “and”; a condition that tells them apart may be missing. Equal entries are not always repeated. Screen size: about 390,000 compounds; about 150 (0.038%) were called active. Inconclusive results, whose numbers are uncertain, are shown with a selection of clear calls. Calls follow the shape of the dose curve; as a rule, active = well fitted inhibition curve with a large enough effect; inconclusive = small, poorly fitted or top-dose-only effect; inactive = no such curve, though single readings can be large or run the other way. Where the call is inconclusive, the potency comes from a doubtful curve fit.

target: Regulator of G-protein signaling 4 (Homo sapiens) (UniProt P49798); assay: Inhibitors of Regulator of G Protein Signaling (RGS) 4: qHTS; conditions: Transcreener GDP fluorescence polarization, RGS4-accelerated GTP hydrolysis; series mostly up to 114 µM; also: nearly all actives have a fitted effect of over 75% in size
Procedure, shortened: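 MLSMR compounds (23 nl, pin-transferred) preincubated 10 min at room temperature with a 500nM (2x) first reagent, then RGS4 at 900nM (2x) plus Transcreener GDP mix added; fluorescence polarization (620/688 nm) read before and after 90 min at 30 °C.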
Potency is read from the fitted curve at half-maximal effect; tags tell the direction and shape of the fitted curve.

Chain of UniProt P49798 (P49798 whole entry, looked up): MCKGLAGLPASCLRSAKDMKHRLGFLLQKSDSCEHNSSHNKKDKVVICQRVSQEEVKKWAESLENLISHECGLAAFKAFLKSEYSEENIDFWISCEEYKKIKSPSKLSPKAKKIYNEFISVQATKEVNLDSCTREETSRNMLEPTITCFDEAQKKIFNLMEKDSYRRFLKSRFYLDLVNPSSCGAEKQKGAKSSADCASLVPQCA

SMILES | Potency
CCOC(=O)c1c(-c2ccc(C)s2)csc1N | inconclusive: 112 µM [inhibitor, partial curve, poor fit]
COc1ccc(/[N+]([O-])=C/c2ccoc2)cc1 | inconclusive: 50.1 µM [inhibitor, partial curve, poor fit]
Cc1c(NC2=C(Cl)C(=O)N(c3ccccc3Cl)C2=O)c(=O)n(-c2ccccc2)n1C | inactive
COCCSc1ccccc1C(=O)NCC1CCCO1 (configuration not stated) | inconclusive: 17.8 µM [inhibitor, full curve, poor fit]
Cc1ccc(C(C2=C(O)CC(C)(C)CC2=O)C2C(=O)CC(C)(C)CC2=O)o1 (configuration not stated) | inconclusive: 79.4 µM [inhibitor, partial curve, poor fit]
COc1ccc(C(=O)OCC(=O)Nc2ncc([N+](=O)[O-])s2)cc1OC | inconclusive: 10 µM [inhibitor, full curve, poor fit]
Brc1ccc(-c2ccc(/C=N/Nc3nc(N4CCOCC4)nc(N4CCOCC4)n3)o2)cc1 | inactive
Cc1ccc(Nc2nc(C(=O)NCc3ccco3)cs2)cc1 | inconclusive: 89.1 µM [inhibitor, single point]
CCOC(=O)C1=C(C)NC(=S)NC1c1ccc(-c2ccc(Cl)cc2)o1 (configuration not stated) | inconclusive: 56.2 µM [inhibitor, partial curve, poor fit]
CCOC(=O)/C(=C\c1c[nH]c2ccccc12)NC(C)=O | inconclusive: 89.1 µM [inhibitor, partial curve, poor fit]
CCCc1cc(=O)[nH]c(SCC(=O)CSc2nc(CCC)cc(=O)[nH]2)n1 | inconclusive: 50.1 µM [inhibitor, partial curve, poor fit]
CCOc1ccccc1NC(=O)CC1Nc2ccccc2NC1=O (configuration not stated) | inactive
O=C(NNC(=O)c1ccc2nonc2c1)Nc1ccc(Cl)cc1 | inactive
COc1ccccc1N1CCN(C(=S)Nc2ccc3nc(N4CCOCC4)cc(C)c3c2)CC1 | inactive
Cc1cc(C(=O)N/N=C2/CC(C)CC(C)(C)C2)c(C)o1 (configuration not stated) | inconclusive: 50.1 µM [inhibitor, partial curve, poor fit]
COc1cccc(C(=O)CSc2nnnn2C)c1 | inconclusive: 17.8 µM [inhibitor, full curve, poor fit]
Nc1nc(SCc2ccc(Cl)cc2Cl)nc2nc3c(cc12)CCCC3 | inconclusive: 100 µM [inhibitor, partial curve, poor fit]
Cc1ccc2nc3c(cc(C(N)=S)c(=N)n3CCCOC(C)C)c(=O)n2c1 | inconclusive: 79.4 µM [inhibitor, partial curve, poor fit]
CCC(=O)c1cn(CC(=O)NCc2ccco2)c2ccccc12 | inconclusive: 89.1 µM [inhibitor, single point]
CC(=O)/C(=N/Nc1ccccc1[N+](=O)[O-])N1CCCc2ccccc21 | inactive
Cc1nc(NCc2ccc(S(N)(=O)=O)cc2)c2c(C)c(C)sc2n1 | inconclusive: 17.8 µM [inhibitor, full curve, poor fit]
CCN(c1ccccc1)S(=O)(=O)c1ccc(Cl)c(NC(=O)CSc2n[nH]c(N)n2)c1 | inactive
CCCc1nc2c(s1)CCc1onc(-c3ccc(Br)cc3)c1-2 | inactive

SMILES | Potency
CCC(c1nnnn1C1CCCC1)N1CCC(C(N)=O)CC1 (configuration not stated) | inconclusive: 70.8 µM [inhibitor, single point]
CCC(=O)NC1=C(Cl)C(=O)C(NC(=O)CC)=C(Cl)C1=O | inactive
Cc1cc(C(=O)N/N=C/c2cc(N=Nc3ccccc3)ccc2O)n[nH]1 | inconclusive: 50.1 µM [inhibitor, partial curve, poor fit]
CCOC(=O)c1c(NC(=O)CSc2nnnn2-c2ccccc2)sc2c1CC(C)(C)NC2(C)C | inactive
CCOC(=O)c1cnc2ccc(C(=O)OC)cc2c1Nc1ccc2c(c1)OCCO2 | inactive
COc1cc2ccccc2cc1C(=O)N(CCN(C)C)c1nc2ccc(Br)cc2s1 | inactive
O=C(NNC(=S)NCc1ccccc1)c1ccc(Br)cc1 | inconclusive: 79.4 µM [inhibitor, partial curve, poor fit]
O=C(CCCOc1ccc(Cl)cc1Cl)N/N=C/c1ccc(Cl)cc1 | inconclusive: 50.1 µM [inhibitor, partial curve, poor fit]
CC(C)C(NC(=O)C12CC3CC(CC(C3)C1)C2)C(=O)N/N=C/C1=C(N2CCOCC2)C(=C\c2cccc([N+](=O)[O-])c2)/CC1 (configuration not stated) | inconclusive: 100 µM [inhibitor, single point]
O=[N+]([O-])c1cccc(C=Nc2cccc3ccccc23)c1O | inactive
N#CC(Sc1ccccn1)c1ccc(Cl)cc1 (configuration not stated) | inconclusive: 50.1 µM [inhibitor, partial curve, poor fit]
O=C(COc1ccc(Cl)cc1)Nc1c(-c2cccs2)nc2ccccn12 | inconclusive: 44.7 µM [inhibitor, partial curve, poor fit]
CCCCCOC(=O)c1ccccc1C(=O)O | inconclusive: 44.7 µM [inhibitor, partial curve, poor fit]
COc1ccc(OCC(=O)Nc2cc(-c3cccc(Cl)c3)nn2-c2ccccc2)cc1 | inconclusive: 89.1 µM [inhibitor, single point]
O=C(Nc1ccc2c(c1)CCC2)c1cnccn1 | inactive
CCc1ccc(Nc2cc(C)nc3nc(Cc4ccc(Cl)cc4)nn23)cc1 | inactive
CCOc1ccc(C(=O)Nc2ccc(-c3nc4ccccc4[nH]3)cc2)cc1[N+](=O)[O-] | inconclusive: 28.2 µM [inhibitor, full curve, poor fit]
CCOc1cc(/C=C2\COc3ccccc3C2=O)ccc1OCC(=O)N(C)C | inactive
CN1Cc2c(N)cccc2C(c2ccccc2)C1 (configuration not stated) | inconclusive: 6.7 µM [inhibitor, partial curve, poor fit]
CC1(C)CC(=O)C(C=NCC2CCN(C(=S)Nc3cccc(Cl)c3)CC2)=C(O)C1 | inconclusive: 112 µM [inhibitor, partial curve, poor fit]
COCn1c(-c2ccc(OC)cc2)nc2ccccc21 | inconclusive: 50.1 µM [inhibitor, partial curve, poor fit]
O=C(/C=C/Nc1ccccc1C(F)(F)F)c1ccco1 | inconclusive: 89.1 µM [inhibitor, single point]
CCOc1ccc(C(=O)Nc2cc(C)ccn2)cc1 | inconclusive: 17.8 µM [inhibitor, full curve, poor fit]

SMILES | Potency
COc1cccc(CNC(=O)CCc2c(C)nn(-c3ccc(N4CCOCC4)nn3)c2C)c1 | inactive
O=C(NCc1nc(-c2ccc(C(F)(F)F)cc2)no1)Nc1ccc(F)cc1F | inconclusive: 79.4 µM [inhibitor, partial curve, poor fit]
CSc1ccc2c(c1)[C@H](N1CCN(C)CC1)Cc1ccccc1S2 | inactive
NC(=O)c1ccc2c(=O)n3c(-c4cc(Cl)c(N)c(Cl)c4)csc3nc2c1 | inconclusive: 44.7 µM [inhibitor, partial curve, poor fit]
N#CC1=C2SCN(C3CCCCC3)CN2C(=O)CC1c1ccc(F)cc1 (configuration not stated) | inconclusive: 70.8 µM [inhibitor, partial curve, poor fit]
O=C(Cc1cccs1)N1CCN(C(=O)C2CCCO2)CC1 (configuration not stated) | inconclusive: 89.1 µM [inhibitor, single point]
COc1cccc(C(=O)Nc2ccc(F)c(F)c2F)c1 | inactive
COc1ccc(N2C3=C(CC4=C2CC(C)(C)CC4=O)C(=O)CC(C)(C)C3)cc1 | inconclusive: 17.8 µM [inhibitor, full curve, poor fit]
CC(=O)N1CCCc2cc(S(=O)(=O)N3CCC(N(C)C(C)C)CC3)ccc21 | inactive
CCn1nnnc1SCC(=O)Nc1ccc2c(c1)OCCO2 | inactive
S=C(Nc1ccccc1)c1ccccn1 | inconclusive: 79.4 µM [inhibitor, partial curve, poor fit]
Cc1cc2oc3ccc(NCCCn4ccnc4)cc3c(=O)c2cc1C | inconclusive: 17.8 µM [inhibitor, full curve, poor fit]
CC[n+]1c(/C=C2/C=C(C)CC(C)(C)C2)sc2ccc(OC)cc21 | inconclusive: 35.5 µM [inhibitor, partial curve, poor fit]
O=C(O)c1ccccc1C(=O)Nc1nc(-c2ccccc2)cs1 | inconclusive: 79.4 µM [inhibitor, partial curve, poor fit]
C#CCOCCOCCOCCNc1nc(N2CCN(C(=O)CCCCCCCCCCNC(=O)Cn3cc(CCCCCN)nn3)CC2)nc(N2CCN(C(=O)CCCCCCCCCCNC(=O)Cn3cc(CCCCCN)nn3)CC2)n1 | inactive
Cc1ccccc1C(C(=O)NCc1ccco1)N(CC1CCCO1)C(=O)Cn1nnc2ccccc21 (configuration not stated) | inactive
COc1ccc(/C=C2/CCC(CN3CCOCC3)C2=O)cc1 (configuration not stated) | inconclusive: 10 µM [inhibitor, full curve, poor fit]
CCC/C=C1/CCCOC(C(=O)NCc2ccc(C)o2)(C(F)(F)F)C1 (configuration not stated) | inactive and inconclusive: 50.1 µM [inhibitor, partial curve, poor fit]
NC(=O)c1ccsc1NC(=O)COC(=O)c1cnccn1 | inconclusive: 89.1 µM [inhibitor, single point]
CC1CC(C)CN(C(=O)CSc2nnc(-c3ccc(F)cc3)o2)C1 (configuration not stated) | inconclusive: 50.1 µM [inhibitor, partial curve, poor fit]
O=C(NC(NNc1ccc([N+](=O)[O-])cc1)(C(F)(F)F)C(F)(F)F)c1ccc(Cl)cc1 | inconclusive: 79.4 µM [inhibitor, partial curve, poor fit]
